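Interpolation was linear, between the two tested concentrations surrounding the appropriate level; five concentrations were tested over 48 hours in 96-well plates. At the GI50, growth is halved. At the TGI there is no net growth.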
Test system: NCI-H322M lung
Test: NCI-60 cell line screen, 48 h

SMILES	GI50 [µM]	TGI [µM]
CCCN(CCC)C(=O)C1=Cc2ccc(-c3ccc(C(=O)N4CCCC4)cc3)cc2N=C(N)C1	16.5	49.9
CCC(=O)Nc1ccc(N=Cc2cccc(Oc3ccccc3)c2)cc1	–	> 100
C=C1C(=O)O[C@H]2[C@H]1CC/C(COC(=O)CCCCC(=O)OC/C1=C/CC[C@@]3(C)O[C@H]3[C@H]3OC(=O)C(=C)[C@@H]3CC1)=C\CC[C@@]1(C)O[C@@H]21	54.2	> 100
CC(C)=CCC[C@@H](C)C1=C(O)C(Nc2ccccc2Br)=C(C)C(=O)C1=O	–	66.3
CCOc1ccc(N=NC2C(=O)N(C(=O)CC(=O)Nc3ccccc3OC)N=C2C)cc1 (centres undefined)	–	> 100
Cc1cc(N2CCCCC2)nc(N(CCCNc2ccnc3cc(Cl)ccc23)Cc2ccco2)n1	1.85	9.82
COc1cc2nc3sc(C(=O)Nc4ccc(C(=O)OC(C)C)cc4)c(C(=O)Nc4ccc(Cl)cc4C)n3c(=O)c2cc1OC	1.04	23
COC(=O)c1ccc(OCc2ccc3nc(OC)c(OC)nc3c2)cc1	–	> 100
CC(C)(C)NCc1cc(Nc2ccnc3cc(Cl)ccc23)cc(-c2ccc(Cl)cc2)c1O	–	13.2
O=S1c2ccccc2N=C(c2ccc3ccccc3c2)CC1C1=CC=CCC1 (centres undefined)	–	69.7
C=CCCC(OCOCCOC)c1cc(C)c(O[Si](C)(C)C(C)(C)C)c(C)c1 (centres undefined)	–	46.9
COC(=O)/C=C/c1ccc2c(c1)CCC2	–	> 100
O=c1/c(=C/c2cccc([N+](=O)[O-])c2)sc2nc3ccccc3n12	–	> 100
O=C(O)C(CP(=O)(O)O)=C(Cl)Cl	–	> 100
COc1ccccc1C1SCC(=O)N1c1ccc(-n2c(-c3ccccc3)nc3ccccc3c2=O)cc1 (centres undefined)	–	> 100
Oc1ccc2cc(Br)ccc2c1-c1c(O)ccc2cc(Br)ccc12	3.31	14.1
CCOC(=O)/C(=C\c1ccc(O)c(OC)c1)C(=O)c1ccccc1	–	> 54.4
O=c1[nH]c(Nc2ccc(F)c(Cl)c2)nc2nc[nH]c12	–	> 100
O=[N+]([O-])c1ccc(Br)c([N+](=O)[O-])c1	3.25	8.41
CCN(CC)CCCC(C)Nc1cnc(C(=O)Nc2ccc(Cl)c3cccnc23)cn1 (centres undefined)	2.42	7.91
c1ccc(Cn2cc3c(c2-c2ccccc2)CCc2cnoc2-3)cc1	9.28	> 100
CCOC(=O)C12CCCC1(O)N(NC(=O)c1ccccc1)C(C)=C2C(=O)OC (centres undefined)	–	> 100
C/C(=N\NS(=O)(=O)c1ccc(C)cc1)C(CN1CCOCC1)C(c1ccccc1)c1c(O)c2ccccc2oc1=O (centres undefined)	–	> 100
Nc1ccccc1CCCC(=O)O	–	> 100

SMILES	GI50 [µM]	TGI [µM]
OC(c1nc2ccccc2s1)(C(F)(F)F)C(F)(F)F	–	> 100
CNC(=O)CN(CC(=O)NC)C(=O)NC	–	> 100
CCCCCCC(=O)OC[n+]1ccc2c(C)c3[nH]c4ccccc4c3c(C)c2c1	–	2.74
CC(C)(C)NC(C1=CC(C)(C)c2ccccc2C1=O)c1ccccc1 (centres undefined)	2.42	7.47
O=C1NN(c2ccc(C(=O)O)cc2)C(=O)/C1=C\c1ccc([N+](=O)[O-])o1	> 100	> 100
COc1ccc(N2C(=O)C3c4[nH]c5ccccc5c4C4CCCCCCCCCCC4C3C2=O)cc1 (centres undefined)	–	> 63.2
C/C=C/c1c(O)c(=O)c2c(OC)cc(OC)c3c4c(OC)cc(OC)c5c(=O)c(O)c(/C=C/C)c(c1c23)c54	–	97.1
COc1cc(N=CN(C)C)c2ncccc2c1	–	> 100
Cn1cc(C2=C(c3cccc4ccccc34)C(=O)NC2=O)c2ccccc21	10.9	> 25
COc1ccc(C(=O)C(c2ccc(OC)cc2)C2(O)C(=O)Nc3ccccc32)cc1 (centres undefined)	–	> 100
CCOC(=O)c1ccc(Nc2nc3cc(C(F)(F)F)ccc3nc2-c2ccccc2)cc1	–	> 100
CC1CC2(C)ON=C(c3ccccc3)N2c2ccccc2S1 (centres undefined)	67.3	–
Cc1ccccc1C1CC(=O)CC(c2ccccc2C)C12C(=O)NC(=O)NC2=O (centres undefined)	–	> 100
Cc1cc(NC(=S)Nc2ccccc2)c(NC(=S)Nc2ccccc2)cc1C	–	> 100
C/C(CC(=O)Nc1ccc(Cl)c(Cl)c1)=N/NC(=O)C[n+]1ccccc1	–	> 100
CCOC(=O)c1cc2c(ccc3cc(C(=O)OCC)[nH]c32)[nH]1	–	> 100
CC1=C(C(=O)Nc2ccc(F)c(Cl)c2)C(c2ccccc2Cl)NC(=S)N1 (centres undefined)	> 50	> 50
COc1cc(/C=C2\[C@H]3c4c(c(OC)c(C)c(OC)c4OC)C[C@@H](C(=O)N2Cc2ccccc2)N3C(=O)OCC(C)C)c(OC)c(C)c1OC	–	> 100
CCOC(=O)/C(O)=C(/c1n[nH]c(=O)c2ccccc12)[N+](=O)[O-]	–	> 100
CCCN(CCCCC(NC(C)=O)C(=O)NCc1ccccc1)C(=O)N(C)N=O (centres undefined)	–	> 100
CC(C)CNC(=O)CCc1cccc2c1oc1c(CCN)cccc12	–	32.7
CSc1c(C(=O)Nc2ccc(Cl)cc2)c(N)nn1-c1ccccc1	–	> 100
N#Cc1c2ccc([N+](=O)[O-])cc2c(=O)n2c1sc1ccc(C(F)(F)F)cc12	–	> 100

Reference: PubChem BioAssay (NCI)
